{
  "source": "PubChem BioAssay AID651820",
  "about": "(National Center for Advancing Translational Sciences (NCATS), 2012)",
  "note": "Hit rate of the full screen: of about 340,000 compounds, about 12,000 (3.5%) were called active. This list was built around the results that the source calls inconclusive (neither active nor inactive); the mix of calls is not that of the screen. Calls come from the whole dose curve; as a rule, active = well fitted inhibition curve with a large enough effect; inconclusive = small, poorly fitted or top-dose-only effect, or another doubt; inactive = no such curve, though single readings can be large or run the other way. Potencies of inconclusive entries are left out as doubtful fits. % is set by controls: 0 for no effect and ±100 for the full control effect; potency is the fitted concentration of half-maximal effect; tags give direction and shape of the fitted curve.",
  "data": [
    {"test": "qHTS Assay for Inhibitors of Hepatitis C Virus (HCV)", "settings": "Huh7.5.1 HCVcc-Cre (HCVcc is cell-culture hepatitis C virus) infection, luciferase reporter, 44 h; activity change, negative = inhibition: at 41.8 µM (top of the series) unless noted", "procedure,_shortened": "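Reporter virus HCVcc-Cre (~0.5 moi) infects cells exposed to compound; seeding density 1,000 cells/well with 4 h settling beforehand. Luminescence, 15 sec read, taken 44 h post-infection following a 15 min RT substrate incubation.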", "values": [
      {"smiles": "c1ccc(-c2cc(-c3nnc4sc(-c5ccccn5)nn34)[nH]n2)cc1", "Potency": "inconclusive [inhibitor, partial curve]"},
      {"smiles": "Cc1ccc(S(=O)(=O)/N=C(/Nc2cccc(O)c2)c2ccccc2)cc1", "Potency": "active: 11.2 µM"},
      {"smiles": "Cc1cccc(NC(=O)CNC(=O)c2ccc3c(c2)OCO3)n1", "activity change, negative = inhibition": "inactive: -0.683%"},
      {"smiles": "COCCn1ccc2c(OCC(=O)NCc3ccccc3)cccc2c1=O", "activity change, negative = inhibition": "inactive: 6.06%"},
      {"smiles": "Nc1ccc(Br)c2cccnc12", "Potency": "inconclusive [inhibitor, single point]"},
      {"smiles": "COc1cccc(NC(=O)NCCCN2CCN(c3ccc(F)cc3)CC2)c1", "Potency": "inconclusive [inhibitor, single point]"},
      {"smiles": "CC(C)(C)c1nnc(NC(=O)c2cccnc2)s1", "activity change, negative = inhibition": "inactive: 26%"},
      {"smiles": "COc1ccc(C(O)(c2ccccc2OC)C(CN2CCOCC2)c2ccccc2)cc1", "note": "(centres undefined)", "Potency": "inconclusive [inhibitor, single point]"},
      {"smiles": "O=C(N/N=C/c1ccc(N2CCCCC2)o1)c1ccccc1", "activity change, negative = inhibition": "inactive: -6.15%"},
      {"smiles": "CCN1C(=O)[C@H]2[C@@H](c3ccc(-c4ccc5c(c4)OCO5)c(OC)c3)N[C@@](Cc3ccccc3)(C(=O)OC)[C@H]2C1=O", "Potency": "inconclusive [inhibitor, partial curve]"},
      {"smiles": "CCc1nn(CC(=O)NC(C)CCc2ccccc2)c(=O)c2cc3occc3n12", "note": "(centres undefined)", "Potency": "inconclusive [inhibitor, single point]"},
      {"smiles": "N#Cc1cn(Cc2cccc(Cl)c2)c2ccccc12", "Potency": "inconclusive [inhibitor, single point]"},
      {"smiles": "O=C1CCC(C(=O)N2CCN(c3ccc(F)cc3)CC2)CN1CC1CCCCC1", "note": "(centres undefined)", "Potency": "inconclusive [inhibitor, single point]"},
      {"smiles": "Oc1ccc2ccccc2c1CNc1ccccn1", "activity change, negative = inhibition": "inactive: 2.12%"},
      {"smiles": "CCN1CCN(S(=O)(=O)c2ccc(Cl)c(C(=O)N(C)Cc3cccc(Cl)c3Cl)c2)CC1", "Potency": "inconclusive [inhibitor, partial curve]"},
      {"smiles": "O=C(C[C@@H]1C/C=C\\C[C@@H](NC(=O)OCC2c3ccccc3-c3ccccc32)C(=O)OC[C@@H](Cc2ccccc2)NC1=O)NCCO", "Potency": "active: 2 µM"},
      {"smiles": "COc1cc(/C=N/N(c2ccccc2)c2ccccc2)ccc1O", "Potency": "inconclusive [inhibitor, single point]"},
      {"smiles": "C=CCn1c(-c2ccc([N+](=O)[O-])cc2)n[nH]c1=S", "activity change, negative = inhibition": "inactive: 2.55%"},
      {"smiles": "CCn1c(SCc2nc3ccccc3c(=O)[nH]2)nc2ccccc2c1=O", "Potency": "inconclusive [inhibitor, partial curve, poor fit]"},
      {"smiles": "O=C(CSc1nc(Nc2ccccc2)nc(N2CCOCC2)n1)Nc1ccc([N+](=O)[O-])cc1", "Potency": "active: 11.2 µM"},
      {"smiles": "CC(=O)c1cccc(NS(=O)(=O)c2ccc3c(c2)N(C(C)=O)CCO3)c1", "Potency": "inconclusive [inhibitor, single point]"},
      {"smiles": "Cc1cccc(C)c1NC(=O)C1CCCN1C(=O)Nc1cccc(F)c1", "note": "(centres undefined)", "activity change, negative = inhibition": "inactive: 19.4%"},
      {"smiles": "C=CCn1c(SCC(=O)N2CCN(C(=O)c3ccco3)CC2)nc2sc(CC)cc2c1=O", "Potency": "inconclusive [inhibitor, single point]"},
      {"smiles": "C=Cc1ncc(OC)c2c1[nH]c1ccccc12", "Potency": "inconclusive [inhibitor, full curve]"},
      {"smiles": "CCOC(=O)C(=O)NCC(c1cccs1)S(=O)(=O)c1ccc(C)cc1", "note": "(centres undefined)", "activity change, negative = inhibition": "inactive: 19.8%"},
      {"smiles": "O=C(/C=C/c1cccs1)Nc1nc(-c2ccccc2)cs1", "Potency": "active: 22.4 µM"},
      {"smiles": "CCOC(=O)N1CCC(C(=O)NNC(=O)c2ccc(Cl)cc2Cl)CC1", "activity change, negative = inhibition": "inactive: 11.2%"},
      {"smiles": "Cc1cccc(NC(=S)N2CCC(C(=O)c3ccc(F)cc3)CC2)c1C", "Potency": "inconclusive [inhibitor, partial curve]"},
      {"smiles": "COc1ccc(CNc2nc(NCc3ccc(OC)cc3)c3ncn(C4CCCC4)c3n2)cc1", "Potency": "inconclusive [inhibitor, single point]"},
      {"smiles": "Cc1ccc(S(=O)(=O)N2CCCCC2)cc1NC(=O)CSc1ncnc2ccccc12", "Potency": "inconclusive [inhibitor, partial curve]"},
      {"smiles": "Cc1ccc(NC(=O)c2ccc3c(c2)OCCO3)nc1", "Potency": "inconclusive [inhibitor, single point]"},
      {"smiles": "COc1cc(C(=S)N2CCOCC2)ccc1OC(=O)c1cc(OC)c(OC)c(OC)c1", "Potency": "inconclusive [inhibitor, single point]"},
      {"smiles": "O=C(NC1CCCC1)C(c1cccs1)N(Cc1ccco1)C(=O)c1csnn1", "note": "(centres undefined)", "activity change, negative = inhibition": "inactive: 3.54%"},
      {"smiles": "O=[N+]([O-])c1ccc(CSc2nc3ccccc3[nH]2)cc1", "Potency": "inconclusive [inhibitor, single point]"},
      {"smiles": "CCNC(=S)NNC(=O)c1cccn(Cc2ccc(Cl)cc2Cl)c1=O", "Potency": "inconclusive [inhibitor, partial curve, poor fit]"},
      {"smiles": "COc1ccc2c(c1)C(c1cccs1)=NNC(c1cccnc1)=N2", "Potency": "inconclusive [inhibitor, single point]"},
      {"smiles": "CC(=O)NC1CC2CCCC(C1)N2CC(=O)N1CCCc2ccccc21", "note": "(centres undefined)", "activity change, negative = inhibition": "inactive: 2.53%"},
      {"smiles": "CCOc1ccc(/C=N/NC(=O)c2cccc3ccccc23)c(OCC)c1", "Potency": "inconclusive [inhibitor, single point]"},
      {"smiles": "CC(C)C[C@H](NC(=O)c1nc[nH]c1C(=O)N[C@@H](CC(C)C)C(=O)OCc1ccccc1)C(=O)OCc1ccccc1", "Potency": "inconclusive [inhibitor, single point]"},
      {"smiles": "O=C(c1cccc(S(=O)(=O)NCc2ccccc2)c1)N1CCN(c2ccc(F)cc2)CC1", "Potency": "inconclusive [inhibitor, partial curve]"},
      {"smiles": "CCC(=O)N1CCc2cc(S(=O)(=O)NCCN3CCCCC3CC)ccc21", "note": "(centres undefined)", "Potency": "inconclusive [inhibitor, partial curve]"},
      {"smiles": "Cc1cc(=O)n2c3ccccc3n(CC(O)CN3CCCC3)c2c1C#N", "note": "(centres undefined)", "Potency": "active: 2 µM"},
      {"smiles": "N/C(=N\\OC(=O)c1ccccc1Cl)c1ccncc1", "Potency": "inconclusive [inhibitor, full curve]"},
      {"smiles": "Cc1onc(-c2ccccc2)c1C(=O)N/N=C/c1ccco1", "Potency": "inconclusive [inhibitor, single point]"}
    ]}
  ]
}
